Test results from the RNAGym collection of RNA variant scans (doi:10.1093/nar/gkz1192).
Read counts are not given, so values of variants with three or more changes are uncertain.

B1: CPEB3 Ribozyme (parent)
chain: UAACAGGGGGCCACAGCAGAAGCGUUCACGUCGCAGCCCCUGUCAGAUUCUGGUGAAUCUGCGAAUUCUGCUGUAUAUCUC

Variants of: B1
Experiment: self-cleavage, relative activity (ratio to wild type); higher = more cleavage; in vitro, sequencing
Summary of the method: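 Barcoded CPEB3 ribozyme mutants, produced by rounds of error-prone PCR, self-cleaved while being transcribed with T7 RNA polymerase for 5 hours at 37°C and during a subsequent 15 min DNase I step before EDTA was added. Sequencing of template-switched cDNA on Illumina gave cleaved and total reads, and DNA sequencing assigned barcodes to variants. Each variant's relative activity is its cleaved/total read fraction divided by the unmutated ribozyme's fraction, averaged across three batches. A variant needed a minimum of 5 reads.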

Row | Variant | self-cleavage
1 | A20G U41A U49C U69G | 0.16
2 | A20G U41A U51C | 0.25
3 | A20G U41A U51C A57G | 0.42
4 | A20G U41C A47G U76C | 0.79
5 | A20G U41C A64U | 0.38
6 | A20G U41C A75G | 0.9
7 | A20G U41C C50A G52A U80C | 0.86
8 | A20G U41C G70A U72C | 0.23
9 | A20G U41C U49G U74C | 0.62
10 | A20G U41C U60A U69C U74C A75U U80C | 0.41
11 | A20G U43A A45G U48C U67A | 0.14
12 | A20G U43A C79G | 1.22
13 | A20G U43C U74A | 0.28
14 | A20G U48A G53U | 0.36
15 | A20G U48C A57G | 0.93
16 | A20G U48C U60C U72C | 0.09
17 | A20G U48C U60G U72G U80C | 0.3
18 | A20G U48C U69A U78C | 0.1
19 | A20G U48C U78C | 0.43
20 | A20G U49C A57G G63A | 0.16
21 | A20G U51A C62U A64U U78C | 0.14
22 | A20G U51C U54C U72A U80A | 0.38
23 | A20G U54A U67C U78C | 1.08
24 | A20G U54C U78A | 0.49

Row | Variant | self-cleavage
25 | A20G U54G A57G | 0.2
26 | A20G U58C U60C C71U | 0.1
27 | A20G U60A A64G U72C | 0.15
28 | A20G U60A U72C | 0.55
29 | A20G U60C A64G | 0.25
30 | A20G U60C A65G | 0.06
31 | A20G U60C A75G | 0.45
32 | A20G U67C U69C | 0.31
33 | A20G U67C U78C U80C | 0.84
34 | A20G U69C U80C | 0.41
35 | A20U A21C U41A A56G | 0.32
36 | A20U A21G C23A C29U C39A U80C | 0.06
37 | A20U A21G C27U | 0.1
38 | A20U A21G C32A | 0.03
39 | A20U A21U A75G | 0.53
40 | A20U A28C A45C A65G U78C | 0.15
41 | A20U A28C A56G | 0.09
42 | A20U A28C U51A | 0.24
43 | A20U A28G G30A | 0.22
44 | A20U A28G U66A U72A U74A | 0.04
45 | A20U A28U U49C U54A A57G | 0.22
46 | A20U A28U U51A U60C | 0.18
47 | A20U A35G A45G A56G U80C | 0.7
48 | A20U A35G A45U U49C U60C A64G G70C | 0.04

Row | Variant | self-cleavage
49 | A20U A35G C62U | 0.2
50 | A20U A35G U41C | 0.57
51 | A20U A35G U41C U43C | 0.21
52 | A20U A35G U49A U66C | 0.43
53 | A20U A35U U60C U66C | 0.15
54 | A20U A35U U66G U69A | 0.09
55 | A20U A45C C50A U78A | 0.06
56 | A20U A45C U60A | 0.26
57 | A20U A45G A47G C71U | 0.07
58 | A20U A45G A57G A75U U78C | 0.27
59 | A20U A45G G52C G61U G73A A75U A77G | 0.15
60 | A20U A45G U74C U80A | 0.18
61 | A20U A45U A56U U60A U66C | 0.13
62 | A20U A45U U51C A56G U69C U80C | 0
63 | A20U A45U U54G | 0.19
64 | A20U A47U A56G U60G U66C U76C U80A | 0.08
65 | A20U A47U A57C A64G U69C U72C | 0.2
66 | A20U A56G A77U | 0.24
67 | A20U A56U A57G | 0.13
68 | A20U A65G U66C U78C | 0.12
69 | A20U A65G U72A | 0.1
70 | A20U C32A U41C U49A | 0.17
71 | A20U C34A U78C C79U U80C | 0.17
72 | A20U C34G U41C A47U A56G U60A | 0.07

Row | Variant | self-cleavage
73 | A20U C34U A56U A64G | 0.08
74 | A20U C37A U51A U80A | 0.07
75 | A20U C38A A57G U58A U69C U72G | 0.05
76 | A20U C38U U48C U60A U74C | 0.08
77 | A20U C40A U60A A64U | 0.13
78 | A20U C40U A47U U54G U72C U80C | 0.09
79 | A20U G22C C40A G63U U74C | 0.32
80 | A20U G24A A57G | 0.11
81 | A20U G24A U41C A57G | 0.07
82 | A20U G33A A45G U51A U60C C62A U78C | 0.03
83 | A20U G33A U60A | 0.14
84 | A20U G33A U69C | 0.31
85 | A20U G33C U49C U66C | 0.05
86 | A20U G42A C71G | 0.06
87 | A20U G42U U43C G53A | 0.25
88 | A20U G52A U60C U78C | 0.33
89 | A20U G52C A64G U74A U80C | 0.39
90 | A20U G52U G63U | 0.27
91 | A20U G55C A64G | 0.22
92 | A20U G55U U60A A77U | 0.22
93 | A20U U25A A35C | 0.35
94 | A20U U25A G53A | 0.09
95 | A20U U25A U26A U60A U66C | 0.05
96 | A20U U25C A35G U72G | 0.2

Row | Variant | self-cleavage
97 | A20U U25C U41C G52C | 0.13
98 | A20U U25C U48C | 0.1
99 | A20U U25C U60C G70C | 0.06
100 | A20U U26A A28G C40G | 0.21
101 | A20U U26A A35G C62U | 0.13
102 | A20U U26A A35U A45U A47G U51A | 0.06
103 | A20U U26A A45G A64U | 0.09
104 | A20U U26A U66G | 0.52
105 | A20U U26A U78C | 0.15
106 | A20U U26C A28G G33U U58C U80C | 0.06
107 | A20U U26C U41A U76C | 0.16
108 | A20U U26C U43A A64G | 0.41
109 | A20U U26C U80C | 0.16
110 | A20U U31C A35C | 0.21
111 | A20U U31C A56U U72A U80C | 0.07
112 | A20U U31C A77G | 0.19
113 | A20U U31C C68U U69C | 0.31
114 | A20U U31C U41A U72A | 0.06
115 | A20U U31C U51C U69A G73A | 0.17
116 | A20U U31C U76G | 0.13
117 | A20U U31G U60C A77G | 0.07
118 | A20U U41A A57G G70C | 0.1
119 | A20U U41A C62G U74G | 0.13
120 | A20U U41A G53U | 0.23

Row | Variant | self-cleavage
121 | A20U U41C A45G U74C | 0.22
122 | A20U U41C A57G U66C | 0.18
123 | A20U U41C U43A A45G C59A U72C | 0.09
124 | A20U U41C U49C A56G A64G U72C U78C | 0
125 | A20U U43C A57G | 0.19
126 | A20U U43C U51C U66A | 0.18
127 | A20U U43C U54C | 0.16
128 | A20U U43C U69A G73C U74A | 0.13
129 | A20U U48C U51A A57G A64U | 0.11
130 | A20U U48C U66C U72C A77C U80C | 0.09
131 | A20U U49A U69C | 0.05
132 | A20U U49A U80A | 0.23
133 | A20U U49C G53U | 0.1
134 | A20U U49C U51C A64G | 0.06
135 | A20U U49C U72G | 0.13
136 | A20U U51C U69A | 0.3
137 | A20U U51G U67C U78C | 0.12
138 | A20U U54C A65G | 0.13
139 | A20U U58C U66C | 0.13
140 | A20U U66C U80C | 0.23
141 | A20U U72A U80C | 0.37
142 | A20U U72C U78A U80C | 0.26
143 | A20U U74A U78A | 0.41
144 | A21C A47G U49A A56G | 0.08

Row | Variant | self-cleavage
145 | A21C C44U U60C U74C | 0.16
146 | A21C C50A A56U U66C C68U A75U | 0.04
147 | A21C C59U A65G | 0.08
148 | A21C U25A U26C C40U A47G A56U U67C | 0.06
149 | A21C U25C U31A | 0.08
150 | A21C U26A U43C A56U A77G U80C | 0.05
151 | A21C U26C G33A U41C | 0.14
152 | A21C U41C U51A U54A U67C | 0.1
153 | A21C U41G U60C C71A | 0.07
154 | A21C U43C A65U U76C | 0.06
155 | A21C U48C A56U U60C A75C C79G | 0.07
156 | A21C U51C G63A U78A | 0.06
157 | A21G A28C U80C | 0.42
158 | A21G A28G A35U U43C U69C | 0.31
159 | A21G A28G A56U U60A U66C A75G | 0.05
160 | A21G A28G C32U G36U | 0.13
161 | A21G A28G G36C U51C U60A | 0.13
162 | A21G A28G G42A U66A | 0.24
163 | A21G A28G U31A | 0.31
164 | A21G A28G U31C A56U A65G | 0.12
165 | A21G A28G U43C U60C | 0.11
166 | A21G A28G U49C | 0.13
167 | A21G A28G U51C U54A | 0.35
